The results in this text go back to patent publication US20250002599A1 (NOVAROCK BIOTHERAPEUTICS, published 2025).

Test [1] has as its target T1, human CD137 expressed on the cell surface of HEK293T cells (human, UniProt Q07011 24-255).
T1 construct: Stably or transiently transfected HEK293T cells; also on HEK293T and Jurkat T NFκB reporter cells; also called human CD137 (WT); 4-1BB
In words: flow cytometry on human CD137-expressing HEK293T cells (target as in the panel title and the legend paragraph 226); one concentration, not given. Background: A flow cytometer gives signals particle by particle.

Test [2] concerns the target T1, human CD137 expressed on the cell …. Briefly: immunofluorescence imaging binding assay on human CD137-expressing HEK293T cells; one concentration, not given.

T1 sequence (Q07011 24-255 limits assumed): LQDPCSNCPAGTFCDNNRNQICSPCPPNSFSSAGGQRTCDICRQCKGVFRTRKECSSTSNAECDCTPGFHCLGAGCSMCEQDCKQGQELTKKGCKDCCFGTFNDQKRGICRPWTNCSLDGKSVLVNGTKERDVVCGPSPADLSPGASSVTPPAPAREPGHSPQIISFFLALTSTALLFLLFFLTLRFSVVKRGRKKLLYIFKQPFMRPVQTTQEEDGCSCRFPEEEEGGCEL

B1: 1923Ab16 (other)
heavy: QVQLVESGGGVVQPGRSLRLSCAASGFTFSNYGMHWVRQAPGKGLEWVAIIWYDGINKYYADSVKGRFTISRDNSKNTLYLQMNSLKAEDTAVYYCARDQDYDILTGYYKEDYFDFWGQGTLVTVSSASTKGPSVFPLAPSSKSTSGGTAALGCLVKDYFPEPVTVSWNSGALTSGVHTFPAVLQSSGLYSLSSVVTVPSSSLGTQTYICNVNHKPSNTKVDKKV[gap - human IgG1 Fc with changes]GGGSGGGGSGGGGSEIVMAQSPATLSLSPGERATLSCRASQSVSSSYLSWFQQKPGQAPRLLIYGASTRATGIPARFGGSGSGTDFTLTISSLQPEDFAVYYCQQDYNLPYTFGQGTKLEIKGGGGSGGGGSGGGGSQVQLVQSGAEVKKPGASVKVSCKASGYTFTSYDINWVRQATGQGLEWMGWMNPNSGITGYAQRFQGRVTMTRDTSISTAYMELSSLRSEDTAVYYCARHRWGKGYLDLWGRGTLVTVSS
light: SYELTQPPSVSVSPGQTARITCSGDALPKKYAYWYQQKSGQAPVLVIYEDSKRPSGIPERFSGSSSGTMATLTISGAQVEDEADYYCYSTDSSGNRVFGGGTKLTVLGQPKANPTVTLFPPSSEELQANKATLVCLISDFYPGAVTVAWKADGSPVKAGVETTKPSKQSNNKYAASSYLSLTPEQWKSHRSYSCQVTHEGSTVEKTVAPTECSGGGGSGGGGSGGGGSTIPPHVQKSVNNDMIVTDNNGAVKFPQLCKFCDVRFSTCDNQKSCMSNCSITSICEKPQEVCVAVWRKNDENITLETVCHDPKLPYHDFILEDAASPKCIMKEKKKPGETFFMCSCSSDECNDNIIFSEEYNTSNPD
notes: Trispecific: 1923Ab4 IgG1 L234A L235A scaffold, 1923Ab3 scFv at the C-terminus of each heavy chain, TGFβRII ECD at the C-terminus of each light chain; also called CD137/TGFβ/PD-L1 trispecific 1923Ab16; CD137/TGFβRII/PD-L1 trispecific
Consider B1, for which, in test [1], the binding result is “binds”.

B2: 1923Ab10 (other)
heavy 1: QVQLVQSGAEVKKPGASVKVSCKASGYTFTSYDINWVRQATGQGLEWMGWMNPNSGITGYAQRFQGRVTMTRDTSISTAYMELSSLRSEDTAVYYCARHRWGKGYLDLWGRGTLVTVSSASTKGPSVFPLAPSSKSTSGGTAALGCLVKDYFPEPVTVSWNSGALTSGVHTFPAVLQSSGLYSLSSVVTVPSSSLGTQTYICNVNHKPSNTKVDKKV[gap - human IgG1 Fc with changes]GGGSGGGGSGGGGSSYELTQPPSVSVSPGQTARITCSGDALPKKYAYWYQQKSGQAPVLVIYEDSKRPSGIPERFSGSSSGTMATLTISGAQVEDEADYYCYSTDSSGNRVFGGGTKLTVLGGGGSGGGGSGGGGSQVQLVESGGGVVQPGRSLRLSCAASGFTFSNYGMHWVRQAPGKGLEWVAIIWYDGINKYYADSVKGRFTISRDNSKNTLYLQMNSLKAEDTAVYYCARDQDYDILTGYYKEDYFDFWGQGTLVTVSS
heavy 2: QVQLVQSGAEVKKPGASVKVSCKASGYTFTSYDINWVRQATGQGLEWMGWMNPNSGITGYAQRFQGRVTMTRDTSISTAYMELSSLRSEDTAVYYCARHRWGKGYLDLWGRGTLVTVSSASTKGPSVFPLAPSSKSTSGGTAALGCLVKDYFPEPVTVSWNSGALTSGVHTFPAVLQSSGLYSLSSVVTVPSSSLGTQTYICNVNHKPSNTKVDKKVEPKSCDKTHTCPPCPAPEAAGGPSVFLFPPKPKDTLMISRTPEVTCVVVDVSHEDPEVKFNWYVDGVEVHNAKTKPREEQYNSTYRVVSVLTVLHQDWLNGKEYKCKVSNKALPAPIEKTISKAKGQPREPQVCTLPPSRDELTKNQVSLSCAVKGFYPSDIAVEWESNGQPENNYKTTPPVLDSDGSFFLVSKLTVDKSRWQQGNVFSCSVMHEALHNHYTQKSLSLSPGK
light: EIVMAQSPATLSLSPGERATLSCRASQSVSSSYLSWFQQKPGQAPRLLIYGASTRATGIPARFGGSGSGTDFTLTISSLQPEDFAVYYCQQDYNLPYTFGQGTKLEIKRTVAAPSVFIFPPSDEQLKSGTASVVCLLNNFYPREAKVQWKVDNALQSGNSQESVTEQDSKDSTYSLSSTLTLSKADYEKHKVYACEVTHQGLSSPVTKSFNRGECGGGGSGGGGSGGGGSTIPPHVQKSVNNDMIVTDNNGAVKFPQLCKFCDVRFSTCDNQKSCMSNCSITSICEKPQEVCVAVWRKNDENITLETVCHDPKLPYHDFILEDAASPKCIMKEKKKPGETFFMCSCSSDECNDNIIFSEEYNTSNPD
notes: Asymmetric trispecific as 1923Ab9 but with the 1923Ab4 scFv in VL-VH order; monovalent for CD137; also called PD-L1/TGFβ/CD137 trispecific 1923Ab10
With B2, in test [2], the binding result was “binds”.

B3: 1923Ab11 (bispecific antibody, human IgG1, kappa)
heavy: QVQLVQSGAEVKKPGASVKVSCKASGYTFTSYDINWVRQATGQGLEWMGWMNPNSGITGYAQRFQGRVTMTRDTSISTAYMELSSLRSEDTAVYYCARHRWGKGYLDLWGRGTLVTVSSASTKGPSVFPLAPSSKSTSGGTAALGCLVKDYFPEPVTVSWNSGALTSGVHTFPAVLQSSGLYSLSSVVTVPSSSLGTQTYICNVNHKPSNTKVDKKV[gap - human IgG1 Fc with changes]GGGSGGGGSGGGGSSYELTQPPSVSVSPGQTARITCSGDALPKKYAYWYQQKSGQAPVLVIYEDSKRPSGIPERFSGSSSGTMATLTISGAQVEDEADYYCYSTDSSGNRVFGGGTKLTVLGGGGSGGGGSGGGGSQVQLVESGGGVVQPGRSLRLSCAASGFTFSNYGMHWVRQAPGKGLEWVAIIWYDGINKYYADSVKGRFTISRDNSKNTLYLQMNSLKAEDTAVYYCARDQDYDILTGYYKEDYFDFWGQGTLVTVSS
light: EIVMAQSPATLSLSPGERATLSCRASQSVSSSYLSWFQQKPGQAPRLLIYGASTRATGIPARFGGSGSGTDFTLTISSLQPEDFAVYYCQQDYNLPYTFGQGTKLEIKRTVAAPSVFIFPPSDEQLKSGTASVVCLLNNFYPREAKVQWKVDNALQSGNSQESVTEQDSKDSTYSLSSTLTLSKADYEKHKVYACEVTHQGLSSPVTKSFNRGEC
notes: 1923Ab3 IgG1 L234A L235A scaffold with 1923Ab4 scFv (VL-VH) at the C-terminus of each heavy chain; also called PD-L1/CD137 bispecific 1923Ab11
For the molecule B3, in test [2], the binding result was “binds”.
